According to ChEMBL document CHEMBL4888484, “Replenishing the malaria drug discovery pipeline: Screening and hit evaluation of the MMV Hit Generation Library 1 (HGL1) against asexual blood stage Plasmodium falciparum ,using a nano luciferase reporter read-out” (2022):
The whole screen tested about 150,000 compounds, of which about 540 (0.36%) showed an effect of 50% or more. The list shows a part of the results.

Tested on: Plasmodium falciparum
Experiment: Primary screen in NF54 nanoGlo assay, in single point, at 2uM, 72h; a lower Z score goes with more inhibition
Type: functional, Erythrocyte
Settings: timepoint 72 hour

Row | Compound | % Inhibition [%] | Z score
1 | O=C1N[C@]2(CCc3ccccc3C2)C(=O)N1Cc1cccc2ncnn12 | 10 | -1.66
2 | CC(=O)Nc1c(F)cc(C(C)=O)cc1F | -14 | 1.34
3 | CC[C@@H](C(=O)N1CCCc2c(F)ccc(F)c21)N1CCCC1=O | -10 | 1.33
4 | Cc1cc2cc(C(=O)NCC(=O)Nc3cccnc3)oc2cc1C | -27 | 2.72
5 | CN1/C(=N/NC(=O)c2ccccc2)C(=O)c2ccccc21 | 8 | -1.03
6 | CC(C1CC1)N(Cc1ccccc1)C(=O)C1CCCN(C(=O)c2cccs2)C1 (stereo not drawn) | 3 | -0.38
7 | CC(C)N1C[C@@H](NC(=O)c2cccc(NCc3cccs3)c2)CC1=O | 5 | -0.74
8 | CCc1cc(N2CCCO2)nc(-c2ccncc2)n1 | 1 | -0.06
9 | CCCCN1CCCC[C@@H]1CNC(=O)Nc1cccnc1 | -8 | 1.16
10 | Clc1cnccc1CN1CCCCCC1 | 3 | -0.48
11 | c1ccc(N2CC[C@H](C3CCOCC3)C2)nc1 | -5 | 0.72
12 | Cc1ccc(NS(=O)(=O)c2cc(-c3csc(C)n3)ccc2C)c(Cl)c1 | 7 | -0.98
13 | Cc1cc(C(=O)NC[C@H]2CCCOC2)cc(O)n1 | -4 | 0.64
14 | COc1cccc(Cc2c(C)nc(C3CC3)nc2N2CCN(C(=O)[C@H]3CCOC3)CC2)c1 | 4 | -0.47
15 | Cc1cnc(NCCCS(C)(=O)=O)nc1 | -7 | 0.62
16 | CCN(C(=O)N1CCC(OC2CCCCC2)CC1)C(C)C | -1 | 0.09
17 | Cc1cc(=O)[nH]c(CCn2ccnc2-c2ccnc3ccccc23)n1 | -18 | 2.47
18 | Fc1ccc(CO[C@H]2CCCc3c[nH]nc32)cc1Br | -10 | 1.67
19 | CCC(CC)C(=O)N1CCC[C@H](N(CCN2CCCCC2)C(C)=O)C1 | -9 | 1.17
20 | CCc1nc(-c2ccccc2)nc(N2CCN(C(=O)c3ccccc3Cl)CC2)c1Cc1cc(C)ccc1C | -15 | 2.19
21 | O=c1c2ccccc2ncn1CCCc1ncnn1CCO | -5 | 0.77

Row | Compound | % Inhibition [%] | Z score
22 | Cc1cnccc1CC(=O)N[C@H](C)c1ccc(Br)cc1 | -5 | 0.83
23 | Cc1cc(C)nc(CCNc2cc(C3CC(O)C3)nc(N)n2)n1 (stereo not drawn) | -10 | 1.33
24 | CN(Cc1csc(-c2ccoc2)n1)C1CCS(=O)(=O)CC1 | -16 | 1.83
25 | Cc1ccc(N2CC[C@@](O)(C(F)(F)F)C2)nn1 | 0 | 0.06
26 | CC1CCN(C(=O)NCCOCC2CCCO2)C(C)C1 (stereo not drawn) | 12 | -1.71
27 | O=C(COC1CCCC1)Nc1nc(-c2ccco2)cs1 | -11 | 1.8
28 | C[C@H]1CCN(C(=O)c2coc(Br)c2)CCS1(=O)=O | 6 | -0.79
29 | Cc1nc2n(n1)C[C@@H](Nc1ncc(Cl)cc1Br)CC2 | -2 | 0.21
30 | CCCc1nc(CNC(=O)c2cnc[nH]2)cs1 | -6 | 1.14
31 | COc1ccc(C2CC(C)N(C(=O)[C@@H]3CCCN3)C2)cc1 (stereo partly drawn) | -4 | 0.58
32 | COc1ccccc1Oc1nc(N2CCN(C)CC2)nc2c1CN(C(=O)c1cccc(C)c1)CC2 | -18 | 2.1
33 | CS(=O)(=O)CC1(CC(=O)N(C2CC2)[C@H]2CCc3ccccc32)CC1 | 5 | -0.85
34 | COc1ccc([C@H]2NCCc3[nH]cnc32)cc1Cn1cncn1 | -7 | 1.38
35 | Cc1cnn(Cc2cc(C(=O)NC3c4ccccc4CC3O)no2)c1 (stereo not drawn) | -8 | 1.25
36 | CCOc1cccc(NC(=O)N(C)Cc2nc(C)c[nH]2)c1 | -1 | 0.15
37 | CC1CCN(C(=O)c2cnc3[nH]c(=O)[nH]c3c2)C(C(N)=O)C1 (stereo not drawn) | 0 | -0.07
38 | CN(Cc1ccc2nc(N)sc2c1)C1CC1 | -3 | 0.47
39 | CC(C)CCNC(=O)CC[C@@H](C)[C@H]1CC[C@H]2[C@@H]3[C@@H](O)C[C@@H]4C[C@H](O)CC[C@]4(C)[C@H]3CC[C@]12C | -4 | 0.5
40 | COc1ccc(-c2nc3c(c(N4CCN(C)CC4)n2)CCOCC3)cc1 | -3 | 0.45
41 | CCCc1ncc(CNC(=O)[C@H](C)c2cn(C)c3ccccc23)o1 | -8 | 1.09
42 | C#CC(CC)(CC)NS(=O)(=O)c1ccc(Cl)cc1 | -4 | 0.54

Row | Compound | % Inhibition [%] | Z score
43 | O=C(Nc1nsc(-c2ccc(Cl)cc2)n1)c1ccccc1F | -10 | 1.31
44 | COc1ncc(C(=O)N2CCO[C@H](C(C)(C)C)CC2)cn1 | -9 | 1.62
45 | O=C(NCc1ccc(Cn2ccnc2)cc1)[C@@H]1CCN1Cc1ccccc1 | -2 | 0.21
46 | O=C(Nc1noc2c1CCCC2)[C@H]1CCOC2(CCCC2)C1 | -1 | 0.15
47 | COc1ccc(-n2c(N)c(C(=O)NCc3ccc4c(c3)OCO4)sc2=S)c(OC)c1 | -6 | 0.74
48 | Cc1ccc(S(=O)(=O)c2c(C(=O)N3CCCCC3)cnc3ccc(F)cc23)cc1 | 5 | -0.86
49 | Cn1cc(C(C)(C)C(=O)N2CC[C@H]2C(F)F)cn1 | -13 | 1.32
50 | Cc1ccc(N2C[C@@H](C(=O)N3CCCC3)CC2=O)c(C)c1 | -7 | 1.07
51 | Cn1ncc2c(=O)n(C[C@H](O)COc3ccc(F)cc3)cnc21 | -8 | 1.65
52 | O=C(C1CCN([C@H]2CN(S(=O)(=O)c3ccccc3)C[C@@H]2O)CC1)N1CCCC1 | 7 | -0.86
53 | CC(=O)N1CCCCC[C@H]1c1noc(-c2ccccc2)n1 | -12 | 1.77
54 | C[C@H]1CS(=O)(=O)CCCN1C(=O)COC1(C)CCC1 | -5 | 0.82
55 | COc1cc(CS(=O)(=O)[C@@H](C)C(=O)N2CCc3ccccc32)ccc1OC(F)F | -1 | 0.1
56 | CCOc1ccccc1C1c2[nH]c3ccccc3c2C[C@H]2C(=O)N(C3CCCCCC3)CC(=O)N12 (stereo partly drawn) | 24 | -3.09
57 | O=C(NC[C@H]1CCCN2CCCC[C@@H]12)C1CC(=O)N(c2n[nH]c3cccc(F)c23)C1 (stereo partly drawn) | -7 | 0.83
58 | CC[C@@H](CNC(=O)N1CCCN(c2ccccc2C)CC1)N1CCOCC1 | -4 | 0.57
59 | Cc1ccc([C@H](CNC(=O)c2oc3cc(C)c(Cl)cc3c2C)N2CCN(C)CC2)o1 | -6 | 0.9
60 | CN(Cc1ccc(F)cc1)C(=O)Nc1ccc2[nH]ccc2c1 | -1 | 0.1
61 | COc1ccc(C(=O)N(Cc2cc3ccc(C)cc3nc2N2CCN(C(C)=O)CC2)C2CC2)cc1OC | 7 | -0.95
62 | CC[C@@H]1OC2(CCN(C(=O)c3cc4c(C)cc(F)cc4[nH]3)CC2)NC1=O | 6 | -1
63 | Cc1nnc2ccc(-c3noc(-c4ccc5cc[nH]c5c4)n3)cn12 | -13 | 2.23

Row | Compound | % Inhibition [%] | Z score
64 | Cn1c(CN2CC3CCCCC32c2ccccc2)cc(=O)n(C)c1=O (stereo not drawn) | -7 | 1.31
65 | COc1ccc(CCNC(=O)c2cc(C(C)(C)C)c3c(O)n[nH]c3n2)cc1 | 35 | -3.96
66 | CN(C[C@H]1CCCCN1C)c1ncccc1C(N)=O | 1 | -0.13
67 | CS(=O)(=O)NCc1ncnn1CCc1ccccc1 | -21 | 1.9
68 | CCc1cccc2c(C3CCN(C(=O)c4cccc5c4CNC5)CC3)c[nH]c12 | -10 | 1.67
69 | CCCC(C)NC(=O)C(C)NC1CCN(C(C)=O)CC1CC (stereo not drawn) | -2 | 0.22
70 | CS(=O)(=O)N[C@H]1C[C@@H]2C[C@H]1N(C(=O)c1cc3c(s1)CCCC3)C2 | 28 | -3.16
71 | CC(NC(=O)C1CC(=O)C1)C(c1ccccc1Cl)n1cccn1 (stereo not drawn) | 19 | -2.47
72 | O=C([C@H]1CCCN(Cc2ccco2)C1)N1CCc2ncccc2C1 | 9 | -1.65
73 | O=C(C1=NN(c2ccccc2)C(=O)CN1)N1CCOCC1 | 5 | -1
74 | CC(=O)N1CCN(C(=O)c2cnc(-c3ccc4c(c3)CCO4)s2)C(C)(C)C1 | -8 | 0.9
75 | CC(C)[C@@H](CO)NC(=O)NCC1OCCc2sccc21 (stereo partly drawn) | -10 | 0.83
76 | Cc1ccc(C(=O)Nc2sc3c(c2C(=O)N2CCC(C)CC2)CC[C@H](C)C3)cc1 | 3 | -0.44
77 | Cc1cccc2nc(CN3CCS(=O)(=O)CC3)cn12 | -12 | 1.68
78 | CC(=O)Nc1ccc(CN2C[C@@H]3CC[C@H]2CN(Cc2[nH]cnc2C)C3)cc1 | -5 | 0.48
79 | COc1ccc(-c2cnc3n2C[C@@H](C(=O)NCCNC(C)=O)CC3)cc1 | -3 | 0.49
80 | N#CCCS(=O)(=O)c1ccc(Cl)c(Cl)c1 | -16 | 3.02
81 | CC(C)N1CCc2nc(-c3ccccc3)[nH]c(=O)c2C1 | 6 | -0.85
82 | Cc1nc(C2CC2)oc1C(=O)N(CC(F)F)c1ccc(F)cc1 | 0 | -0.02
83 | O=C(Cc1ccc(F)cc1)N1C2CCC1CC(n1cncn1)C2 (stereo not drawn) | -9 | 1.07
84 | O=C(NCCc1ccc(Cl)cc1)c1ccc(Cn2c(=O)[nH]c3ccccc3c2=O)cc1 | -9 | 1.68
